The supplement of paper PMC5499739
Whole data set: some 16,000 sequences, median “Z-score” near -0.37, cut for the highest 2% near 3.2. This is one part of the list.

Test system: RBM10 RRM1-ZnF (GST-tagged construct)
Experiment: RNAcompete 7-mer binding Z-score; higher = stronger binding preference
Description: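 RNAcompete: 20 pmol GST-tagged RBM10 RNA-binding constructs were incubated with a designed RNA pool of about 241,000 sequences up to 41 nt (1.5 nmol) on glutathione beads for 30 min at 4 °C and washed. Bound RNAs were identified by microarray hybridisation. Each RNA 7-mer is scored by a one-sided Z-score of its enrichment, computed over probes that contain the 7-mer within longer pool sequences.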

First: UUAACGG
Second: UGCCCAU
The “RNAcompete 7-mer binding Z-score” value of the first is higher: 0.157 for the first, -0.685 for the second.

Compared with ACCCGGC, AAGCCCU is lower in “RNAcompete 7-mer binding Z-score” value: -0.516 for the first, -0.831 for the second.

Going from GCUAGCU to UAGACAA, the “RNAcompete 7-mer binding Z-score” value rises from -0.402 to -0.204.

Compared with CACAUUG, GUGACUA is higher in “RNAcompete 7-mer binding Z-score” value: -0.522 for the first, 0.218 for the second.

Going from CGUAAAU to UCCUGUA, the “RNAcompete 7-mer binding Z-score” value falls from -0.519 to -0.798.

Going from GCUUGCC to GCGAAUG, the “RNAcompete 7-mer binding Z-score” value rises from -0.597 to 0.634.

Compared with AUAACCU, UAAAAAA is higher in “RNAcompete 7-mer binding Z-score” value: -0.805 for the first, -0.464 for the second.

Compared with GACCAGC, UUGCGCA is higher in “RNAcompete 7-mer binding Z-score” value: -0.578 for the first, -0.568 for the second.

First: CACUCCG
Second: AGGGCUG
The “RNAcompete 7-mer binding Z-score” value of the first is lower: -0.597 for the first, 1.68 for the second.

Compared with AAGGAAU, AAAAACC is lower in “RNAcompete 7-mer binding Z-score” value: 2.28 for the first, -0.776 for the second.

Compared with GUAAUAA, CCUCCGC is lower in “RNAcompete 7-mer binding Z-score” value: -0.0642 for the first, -0.519 for the second.

First: GAUCACG
Second: UUGUGAC
The “RNAcompete 7-mer binding Z-score” value of the first is higher: -0.155 for the first, -0.324 for the second.

Compared with AGCCCAC, AUUUUCA is lower in “RNAcompete 7-mer binding Z-score” value: -0.529 for the first, -0.922 for the second.

First: UCGCUAG
Second: UCGACUA
The “RNAcompete 7-mer binding Z-score” value of the first is higher: -0.526 for the first, -0.639 for the second.

Compared with UUCGUCG, AUCCCGA is lower in “RNAcompete 7-mer binding Z-score” value: -0.545 for the first, -0.906 for the second.

Compared with ACUCGAG, UGAUGGA is higher in “RNAcompete 7-mer binding Z-score” value: -0.246 for the first, 1.94 for the second.

First: CCACGUA
Second: ACCCGAU
The “RNAcompete 7-mer binding Z-score” value of the first is higher: -0.578 for the first, -0.792 for the second.

Going from UAUCUUG to GUCCAAU, the “RNAcompete 7-mer binding Z-score” value rises from -0.642 to -0.571.

Going from GGCGCUG to GUGUAGU, the “RNAcompete 7-mer binding Z-score” value rises from 0.41 to 0.894.

First: UAUCGGG
Second: ACAACCC
The “RNAcompete 7-mer binding Z-score” value of the first is higher: 0.875 for the first, -0.526 for the second.

Going from GAGGCGA to GUUGAUC, the “RNAcompete 7-mer binding Z-score” value falls from 1.12 to -0.0934.

Going from ACCCCUC to AAUGUUC, the “RNAcompete 7-mer binding Z-score” value falls from -0.587 to -0.636.

Going from CCUUCUG to UGCGGAC, the “RNAcompete 7-mer binding Z-score” value rises from -0.769 to 0.384.

Going from UACUCAA to UAUAACC, the “RNAcompete 7-mer binding Z-score” value falls from -0.672 to -0.727.

Compared with AUAGGUG, GACCCUC is lower in “RNAcompete 7-mer binding Z-score” value: 2.64 for the first, -0.759 for the second.

Compared with CUGGUUU, UCCAAUG is lower in “RNAcompete 7-mer binding Z-score” value: -0.0252 for the first, -0.513 for the second.

Going from AACCCGG to CCAUUCG, the “RNAcompete 7-mer binding Z-score” value falls from -0.431 to -0.802.

First: UCGAGGA
Second: CAUACGG
The “RNAcompete 7-mer binding Z-score” value of the first is higher: 0.904 for the first, 0.287 for the second.

First: CGUGACG
Second: CGGGAGG
The “RNAcompete 7-mer binding Z-score” value of the first is lower: -0.149 for the first, 3.02 for the second.

First: UGAGCAG
Second: UUUGCUA
The “RNAcompete 7-mer binding Z-score” value of the first is higher: 0.644 for the first, -0.675 for the second.

First: GCCAGAA
Second: CCUAUCC
The “RNAcompete 7-mer binding Z-score” value of the first is higher: -0.629 for the first, -0.922 for the second.

Compared with GAAAAUC, UGCCUCC is lower in “RNAcompete 7-mer binding Z-score” value: -0.269 for the first, -0.506 for the second.

First: GGCUAGU
Second: CCACUUG
The “RNAcompete 7-mer binding Z-score” value of the first is higher: 0.102 for the first, -0.724 for the second.

Going from UAAUGAG to ACCCCGC, the “RNAcompete 7-mer binding Z-score” value falls from 0.186 to -0.412.

Compared with GGCGUGU, ACGGUUU is lower in “RNAcompete 7-mer binding Z-score” value: 0.693 for the first, 0.339 for the second.

Compared with CACCUUG, UCAGAGG is higher in “RNAcompete 7-mer binding Z-score” value: -0.516 for the first, 0.498 for the second.

Compared with AACGUGU, AAUAGUU is lower in “RNAcompete 7-mer binding Z-score” value: -0.0285 for the first, -0.373 for the second.

Going from CCCCAAC to UUUACGU, the “RNAcompete 7-mer binding Z-score” value falls from -0.376 to -0.681.

Going from GCCGAAA to CAUCAUC, the “RNAcompete 7-mer binding Z-score” value falls from -0.464 to -0.714.

Compared with CCAGCGA, CCUUUUC is lower in “RNAcompete 7-mer binding Z-score” value: -0.132 for the first, -1.01 for the second.

Going from GGCGACG to GUACGGA, the “RNAcompete 7-mer binding Z-score” value rises from 0.988 to 1.42.

Going from GUCCCCU to UACGCAC, the “RNAcompete 7-mer binding Z-score” value falls from -0.318 to -0.548.

Compared with AAAACAU, GGAGAGG is higher in “RNAcompete 7-mer binding Z-score” value: -0.428 for the first, 3.41 for the second.

Compared with GAUUUAC, GCACCAU is lower in “RNAcompete 7-mer binding Z-score” value: -0.467 for the first, -0.701 for the second.

First: GUCACUG
Second: CCACUAU
The “RNAcompete 7-mer binding Z-score” value of the first is higher: -0.155 for the first, -0.639 for the second.

First: UGCACCG
Second: AUUUUGG
The “RNAcompete 7-mer binding Z-score” value of the first is lower: -0.311 for the first, 0.296 for the second.

Compared with CAUCUGG, CCUCCGG is higher in “RNAcompete 7-mer binding Z-score” value: -0.418 for the first, -0.194 for the second.

First: AUAGUUU
Second: AAUUGCG
The “RNAcompete 7-mer binding Z-score” value of the first is lower: -0.503 for the first, -0.0317 for the second.

Going from GGCGAGA to CUCCAGA, the “RNAcompete 7-mer binding Z-score” value falls from 1.35 to -0.623.

Going from AUUUAUC to GAGUUUG, the “RNAcompete 7-mer binding Z-score” value rises from -0.691 to 0.553.

Compared with ACGAGCG, GCUCUUG is lower in “RNAcompete 7-mer binding Z-score” value: 0.946 for the first, -0.539 for the second.

Going from GACGCUA to GUCCAAG, the “RNAcompete 7-mer binding Z-score” value rises from -0.607 to -0.175.

Going from GCUUUAG to GGAUCUC, the “RNAcompete 7-mer binding Z-score” value rises from -0.535 to -0.246.

Going from UUGCCGU to AAACCCC, the “RNAcompete 7-mer binding Z-score” value rises from -0.659 to -0.597.

Compared with AGAGGUA, UAGACAG is lower in “RNAcompete 7-mer binding Z-score” value: 1.69 for the first, 0.345 for the second.

Going from ACACAUG to GAUGGCG, the “RNAcompete 7-mer binding Z-score” value rises from -0.116 to 1.53.

First: AGAAAUU
Second: UCCUCCU
The “RNAcompete 7-mer binding Z-score” value of the first is higher: -0.366 for the first, -0.782 for the second.

Compared with UGAUCGU, GGCUGCA is higher in “RNAcompete 7-mer binding Z-score” value: -0.483 for the first, 0.426 for the second.

Compared with CGGUCGU, GAAAACU is lower in “RNAcompete 7-mer binding Z-score” value: -0.149 for the first, -0.236 for the second.

Compared with CCGCGAG, AAGUAUA is higher in “RNAcompete 7-mer binding Z-score” value: -0.506 for the first, -0.142 for the second.

Compared with GCGACCU, ACCCGCU is lower in “RNAcompete 7-mer binding Z-score” value: -0.522 for the first, -0.685 for the second.

Compared with UGCAUGG, GGAACCU is lower in “RNAcompete 7-mer binding Z-score” value: 1.31 for the first, -0.149 for the second.

Compared with UCAUGAG, GGACGUC is higher in “RNAcompete 7-mer binding Z-score” value: -0.288 for the first, 0.166 for the second.

Going from CCUGAAG to CCUCAUG, the “RNAcompete 7-mer binding Z-score” value falls from -0.386 to -0.694.

Compared with ACUUUCC, UCGGAAC is higher in “RNAcompete 7-mer binding Z-score” value: -0.964 for the first, -0.145 for the second.

Going from CCUCUUG to UAUCUCG, the “RNAcompete 7-mer binding Z-score” value falls from -0.642 to -0.756.

Compared with UAGAGCA, CCAAUCA is lower in “RNAcompete 7-mer binding Z-score” value: 0.241 for the first, -0.681 for the second.

Going from CGUCUGC to AUCCCUC, the “RNAcompete 7-mer binding Z-score” value rises from -0.759 to -0.75.

Compared with CUUGACC, AAUUCGG is higher in “RNAcompete 7-mer binding Z-score” value: -0.941 for the first, -0.132 for the second.

Going from CAUAUGC to UAUUACU, the “RNAcompete 7-mer binding Z-score” value falls from -0.529 to -0.545.

Compared with GGCCAGU, CCCAGCA is lower in “RNAcompete 7-mer binding Z-score” value: -0.149 for the first, -0.574 for the second.

Compared with ACCGACA, CCUCAAG is higher in “RNAcompete 7-mer binding Z-score” value: -0.779 for the first, -0.548 for the second.

First: CAGUAGA
Second: AGCGUCU
The “RNAcompete 7-mer binding Z-score” value of the first is higher: 0.231 for the first, -0.672 for the second.

Compared with ACACGCA, UUCUUGG is higher in “RNAcompete 7-mer binding Z-score” value: -0.568 for the first, -0.236 for the second.

Going from UCACAGC to AAGUUAC, the “RNAcompete 7-mer binding Z-score” value rises from -0.49 to -0.275.

Going from GGAAAAA to GCACAUG, the “RNAcompete 7-mer binding Z-score” value falls from 1.86 to 0.0885.

First: UGGCUGG
Second: AGCUCUC
The “RNAcompete 7-mer binding Z-score” value of the first is higher: 1.37 for the first, -0.552 for the second.

Going from AACUACC to CGCACAC, the “RNAcompete 7-mer binding Z-score” value rises from -0.753 to -0.366.

Compared with UUAUGUC, CUGGAGC is higher in “RNAcompete 7-mer binding Z-score” value: -0.678 for the first, 0.41 for the second.

Going from CCAUAUU to UCCGAAA, the “RNAcompete 7-mer binding Z-score” value rises from -0.863 to -0.678.

Going from CAAUCAA to GAGAGCC, the “RNAcompete 7-mer binding Z-score” value rises from -0.652 to -0.353.

Compared with UAUAGCA, CAUGAUC is lower in “RNAcompete 7-mer binding Z-score” value: -0.132 for the first, -0.396 for the second.

Compared with AAGCCCG, GCAAUAC is higher in “RNAcompete 7-mer binding Z-score” value: -0.681 for the first, -0.311 for the second.

First: GGUAUUG
Second: CCACUCG
The “RNAcompete 7-mer binding Z-score” value of the first is higher: 1.51 for the first, -0.545 for the second.

Compared with UUGUAUC, UCCAUAC is lower in “RNAcompete 7-mer binding Z-score” value: -0.636 for the first, -0.792 for the second.

Going from GACGCUG to UGAGCCU, the “RNAcompete 7-mer binding Z-score” value falls from -0.396 to -0.717.

Going from UAGUUAA to GAAGAGA, the “RNAcompete 7-mer binding Z-score” value rises from -0.373 to 1.

Compared with UUCCCGA, ACAUGAG is higher in “RNAcompete 7-mer binding Z-score” value: -0.828 for the first, 0.251 for the second.

Going from GGAUGUG to UGCCUGC, the “RNAcompete 7-mer binding Z-score” value falls from 3.43 to -0.503.

UUCCCUG and AGCCUGC are the same in “RNAcompete 7-mer binding Z-score” value: -0.662 for the first, -0.662 for the second.

First: CUCCCUC
Second: CUCACAA
The “RNAcompete 7-mer binding Z-score” value of the first is higher: -0.431 for the first, -0.763 for the second.

With UUCACUA the “RNAcompete 7-mer binding Z-score” value was -0.675.
